Measurements published in patent publication US20150366852A1, “Prevention of Obesity in Antipsychotic, Antidepressant and Antiepileptic Medication” (N-Gene Research Laboratories, Inc., priority 2006, published 2015).

Test system: female Wistar rats
Assay type: in vivo
Conditions: compound alone, 21 days

Cc1nc2n(c(=O)c1CCN1CCC(c3noc4cc(F)ccc34)CC1)CCCC2 [Risperidone, 3-[2-[4-(6-fluoro-1,2-benzisoxazol-3-yl)-1-piperidinyl]ethyl]-6,7,8,9-tetrahydro-2-methyl-4H-pyrido[1,2-a]pyrimidin-4-one]
Body weight gain relative to the control group (in words): increased body weight gain relative to the control group
